Reference: the supplement of paper PMC4604168 (melanoma cell lines)
The list shows a part of the results. Many values rest on one well or one pass, so single values are uncertain.

Tests used:
Assay in all cases: cell count relative to DMSO control; melanoma cells; higher = more viable cells
Conditions in all cases: library dose: standard library concentration; 72 h
[1] = test system: G361
[2] = test system: IPC-298
[3] = test system: IST-MEL1
[4] = test system: LB2518-MEL
[5] = test system: LOXIMVI
[6] = test system: MEL-HO
[7] = test system: MZ2-MEL
[8] = test system: MeWo
[9] = test system: RPMI7951
[10] = test system: RVH-421
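Further: cells treated in 1,536-well plates, then fixed and DAPI-stained, with nuclei counted from automated high-throughput microscope images.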

Row | Compound | cell count [1] | cell count [2] | cell count [3] | cell count [4] | cell count [5] | cell count [6] | cell count [7] | cell count [8] | cell count [9] | cell count [10]
1 | Cn1cc(C2=C(c3cn(C4CCN(Cc5ccccn5)CC4)c4ccccc34)C(=O)NC2=O)c2ccccc21 [Enzastaurin] + Cn1nnc2c(C(N)=O)ncn2c1=O [temozolomide] (first compound 4 µM, partner dose 10 µM) | 68.1% | 83.6% | 79.3% | 67.4% | 82.8% | 85.1% | 91.9% | 82.3% | 47.9% | 91.5%
2 | C[C@]12O[C@H](C[C@]1(O)CO)n1c3ccccc3c3c4c(c5c6ccccc6n2c5c31)CNC4=O [Lestaurtinib] + COc1ccc(Cl)c(Nc2nc3ccccc3nc2NS(=O)(=O)c2cccc(NC(=O)C(C)(C)N)c2)c1 [XL147] (first compound 0.02 µM, partner dose 4 µM) | 77.9% | 68.7% | 76.8% | 67.6% | 144% | 72.2% | 110% | 82.7% | 91.7% | 81.3%
3 | N.N.[Cl][Pt][Cl] [cisplatin] + Cc1nc(Nc2ncc(C(=O)Nc3c(C)cccc3Cl)s2)cc(N2CCN(CCO)CC2)n1 [dasatanib] (first compound 8 µM, partner dose 0.02 µM) | 87.1% | 71.6% | 86.7% | 77.4% | 55.5% | 76.9% | 71.9% | 82.6% | 79.6% | 60.6%
4 | N.N.[Cl][Pt][Cl] [cisplatin] + Nc1ccn([C@@H]2O[C@H](CO)[C@@H](O)C2(F)F)c(=O)n1 [gemcitabine] (first compound 8 µM, partner dose 0.002 µM) | 74.1% | 74.7% | 43.9% | 74.4% | 53.4% | 65.8% | 86.3% | 47.8% | 81.9% | 53.5%
5 | C[As](C)SC[C@H](NC(=O)CC[C@H](N)C(=O)O)C(=O)NCC(=O)O [Darinaparsin] + Cn1cncc1[C@@](N)(c1ccc(Cl)cc1)c1ccc2c(c1)c(-c1cccc(Cl)c1)cc(=O)n2C [tipifarnib] (first compound 2 µM, partner dose 0.05 µM) | 79.6% | 76.9% | 116% | 75% | 52.8% | 77% | 113% | 71.3% | 57.2% | 85.4%
6 | Cn1cc(C2=C(c3cn(C4CCN(Cc5ccccn5)CC4)c4ccccc34)C(=O)NC2=O)c2ccccc21 [Enzastaurin] + Cc1nc(Nc2ncc(C(=O)Nc3c(C)cccc3Cl)s2)cc(N2CCN(CCO)CC2)n1 [dasatanib] (first compound 4 µM, partner dose 0.02 µM) | 34% | 80.7% | 33.8% | 59.8% | 29% | 78.1% | 64.3% | 88.9% | 15.6% | 103%
7 | C[C@]12O[C@H](C[C@]1(O)CO)n1c3ccccc3c3c4c(c5c6ccccc6n2c5c31)CNC4=O [Lestaurtinib] + CCc1ccc(CCOc2ccc(CC3SC(=O)NC3=O)cc2)nc1 [pioglitazone] (first compound 0.02 µM, partner dose 10 µM) | 87.3% | 75.7% | 98.5% | 73.7% | 75.5% | 76.5% | 105% | 82.8% | 88.1% | 91.2%
8 | C[C@]12O[C@H](C[C@]1(O)CO)n1c3ccccc3c3c4c(c5c6ccccc6n2c5c31)CNC4=O [Lestaurtinib] + Nc1ncn([C@H]2C[C@H](O)[C@@H](CO)O2)c(=O)n1 [decitabine] (first compound 0.02 µM, partner dose 0.5 µM) | 77.9% | 49.7% | 81.4% | 50.5% | 79.5% | 72.5% | 75.4% | 55.3% | 79.7% | 74.2%
9 | Cn1cc(C2=C(c3cn(C4CCN(Cc5ccccn5)CC4)c4ccccc34)C(=O)NC2=O)c2ccccc21 [Enzastaurin] + C[C@@H]1CCN(C(=O)CC#N)C[C@@H]1N(C)c1ncnc2[nH]ccc12 [CP690550] (first compound 4 µM, partner dose 5 µM) | 85.8% | 99.4% | 95.3% | 63.8% | 105% | 101% | 121% | 81.5% | 72.4% | 53%
10 | C[C@]12O[C@H](C[C@]1(O)CO)n1c3ccccc3c3c4c(c5c6ccccc6n2c5c31)CNC4=O [Lestaurtinib] + CC(=O)O[C@@]12CO[C@@H]1C[C@H](O)[C@@]1(C)C(=O)[C@H](O)C3=C(C)[C@@H](OC(=O)[C@H](O)[C@@H](NC(=O)OC(C)(C)C)c4ccccc4)C[C@@](O)([C@@H](OC(=O)c4ccccc4)[C@H]21)C3(C)C [Docetaxel] (first compound 0.02 µM, partner dose 0.0005 µM) | 13.3% | 40.7% | 33.4% | 30.7% | 58.9% | 33.1% | 37.6% | 19.9% | 22.2% | 51.3%
11 | Cn1cc(C2=C(c3cn(C4CCN(Cc5ccccn5)CC4)c4ccccc34)C(=O)NC2=O)c2ccccc21 [Enzastaurin] + O=C(O)C(=O)Nc1sc2c(c1C(=O)O)CCNC2 [TCS401] (first compound 4 µM, partner dose 8.33333 µM) | 70.4% | 94.9% | 95.9% | 77.9% | 115% | 84.4% | 91.2% | 77.4% | 68.1% | 81.9%
12 | C[C@]12O[C@H](C[C@]1(O)CO)n1c3ccccc3c3c4c(c5c6ccccc6n2c5c31)CNC4=O [Lestaurtinib] + NC(=O)Nc1cc(-c2cccc(F)c2)sc1C(=O)N[C@H]1CCCNC1 [AZD7762] (first compound 0.02 µM, partner dose 0.1 µM) | 85.8% | 70.3% | 97.1% | 49.2% | 68.5% | 71.5% | 117% | 71% | 47.4% | 80.6%
13 | C[C@]12O[C@H](C[C@]1(O)CO)n1c3ccccc3c3c4c(c5c6ccccc6n2c5c31)CNC4=O [Lestaurtinib] + OCc1c[nH]c2ccccc12 [Indole-3-carbinol] (first compound 0.02 µM, partner dose 4 µM) | 94.1% | 64.8% | 101% | 56.1% | 82.9% | 86.7% | 104% | 77.7% | 105% | 99.3%
14 | Cn1cc(C2=C(c3cn(C4CCN(Cc5ccccn5)CC4)c4ccccc34)C(=O)NC2=O)c2ccccc21 [Enzastaurin] + OCCn1cc(-c2cnc3nnn(Cc4ccc5ncccc5c4)c3n2)cn1 [PF04217903] (first compound 4 µM, partner dose 5 µM) | 77.6% | 120% | 101% | 75.9% | 104% | 114% | 126% | 91.4% | 71.7% | 64.2%
15 | N.N.[Cl][Pt][Cl] [cisplatin] + Cn1cncc1[C@@](N)(c1ccc(Cl)cc1)c1ccc2c(c1)c(-c1cccc(Cl)c1)cc(=O)n2C [tipifarnib] (first compound 8 µM, partner dose 0.05 µM) | 86.8% | 110% | 77.7% | 83.2% | 60.8% | 104% | 134% | 97.5% | 60.9% | 70.8%
16 | N.N.[Cl][Pt][Cl] [cisplatin] + Cc1cc(SCc2sc(-c3ccc(C(F)(F)F)c(F)c3)nc2C)ccc1OCC(=O)O [GW0742] (first compound 8 µM, partner dose 10 µM) | 93.8% | 87% | 88% | 88% | 108% | 83.7% | 83.1% | 99% | 102% | 66.1%
17 | Cn1cc(C2=C(c3cn(C4CCN(Cc5ccccn5)CC4)c4ccccc34)C(=O)NC2=O)c2ccccc21 [Enzastaurin] + Cc1cc(N2CCOCC2)cc2[nH]c(-c3c(NC[C@@H](O)c4cccc(Cl)c4)cc[nH]c3=O)nc12 [BMS536924] (first compound 4 µM, partner dose 1 µM) | 79.6% | 106% | 91% | 68.4% | 82.2% | 94% | 131% | 96.5% | 55.8% | 47.7%
18 | C[As](C)SC[C@H](NC(=O)CC[C@H](N)C(=O)O)C(=O)NCC(=O)O [Darinaparsin] + NCC(=O)Nc1ccc(-n2nc(C(F)(F)F)cc2-c2ccc3c(ccc4ccccc43)c2)cc1 [OSU03012] (first compound 2 µM, partner dose 5 µM) | 69.9% | 57.4% | 74.1% | 75.1% | 71.9% | 86.8% | 88.3% | 85.1% | 70.8% | 92.2%
19 | C[As](C)SC[C@H](NC(=O)CC[C@H](N)C(=O)O)C(=O)NCC(=O)O [Darinaparsin] + COC(=O)c1sccc1S(=O)(=O)Nc1ccc(Nc2ccccc2)cc1OC [GSK0660] (first compound 2 µM, partner dose 5 µM) | 55.3% | 90.7% | 84.1% | 81.1% | 84.2% | 92.4% | 67.9% | 71% | 63.8% | 72.3%
20 | C[As](C)SC[C@H](NC(=O)CC[C@H](N)C(=O)O)C(=O)NCC(=O)O [Darinaparsin] + CCc1ccc(CCOc2ccc(CC3SC(=O)NC3=O)cc2)nc1 [pioglitazone] (first compound 2 µM, partner dose 10 µM) | 74.4% | 97.5% | 85.2% | 86.2% | 73.3% | 91.3% | 114% | 81.2% | 66% | 97%
21 | C[C@]12O[C@H](C[C@]1(O)CO)n1c3ccccc3c3c4c(c5c6ccccc6n2c5c31)CNC4=O [Lestaurtinib] + Oc1cc(-c2nc(-c3ccccc3)[nH]c2-c2ccncc2)ccc1Cl [L779450] (first compound 0.02 µM, partner dose 1 µM) | 44.5% | 57.5% | 79.9% | 60.5% | 83.1% | 69% | 88% | 72.9% | 105% | 71%
22 | Cn1cc(C2=C(c3cn(C4CCN(Cc5ccccn5)CC4)c4ccccc34)C(=O)NC2=O)c2ccccc21 [Enzastaurin] + COc1cc2c(Oc3ccc4[nH]c(C)cc4c3F)ncnc2cc1OCCCN1CCCC1 [cediranib] (first compound 4 µM, partner dose 2 µM) | 65.9% | 112% | 71.3% | 53.7% | 63% | 92% | 107% | 80.6% | 14.8% | 48.9%
